Data on 31 molecules can be found in publication PMC9911399, “Two distinct binding modes provide the RNA-binding protein RbFox with extraordinary sequence specificity”.

Positions count from the first letter of the chain named. Some of the results follow.

Sequences and labels used below:
B1: CAACUUG (DNA:RNA)
RNA: GGGAGACCGGAAUUCAGAUUGUCCCAACUUGUUAAAUCCCGUCGUAGCCACCA
DNA 1: CAATCTGAATTCCGGTCTCCC
DNA 2: TGGTGGCTACGACGGGATT
B2: GGUCAAG (DNA:RNA)
RNA: B1 RNA with C25G, A26G, A27U, U29A, U30A
DNA 1: CAATCTGAATTCCGGTCTCCC
DNA 2: TGGTGGCTACGACGGGATT
B3: AAGCCGA (DNA:RNA)
RNA: B1 RNA with C25A, A27G, U29C, U30G, G31A
DNA 1: CAATCTGAATTCCGGTCTCCC
DNA 2: TGGTGGCTACGACGGGATT
B4: CUUUGUA (DNA:RNA)
RNA: B1 RNA with A26U, A27U, C28U, U29G, G31A
DNA 1: CAATCTGAATTCCGGTCTCCC
DNA 2: TGGTGGCTACGACGGGATT
B5: AUGUGUU (DNA:RNA)
RNA: B1 RNA with C25A, A26U, A27G, C28U, U29G, G31U
DNA 1: CAATCTGAATTCCGGTCTCCC
DNA 2: TGGTGGCTACGACGGGATT
B6: GACGCUA (DNA:RNA)
RNA: B1 RNA with C25G, A27C, C28G, U29C, G31A
DNA 1: CAATCTGAATTCCGGTCTCCC
DNA 2: TGGTGGCTACGACGGGATT
B7: AGUUAUG (DNA:RNA)
RNA: B1 RNA with C25A, A26G, A27U, C28U, U29A
DNA 1: CAATCTGAATTCCGGTCTCCC
DNA 2: TGGTGGCTACGACGGGATT
B8: GUAGAUC (DNA:RNA)
RNA: B1 RNA with C25G, A26U, C28G, U29A, G31C
DNA 1: CAATCTGAATTCCGGTCTCCC
DNA 2: TGGTGGCTACGACGGGATT
B9: CGGUGCA (DNA:RNA)
RNA: B1 RNA with A26G, A27G, C28U, U29G, U30C, G31A
DNA 1: CAATCTGAATTCCGGTCTCCC
DNA 2: TGGTGGCTACGACGGGATT
B10: UCCCAGC (DNA:RNA)
RNA: B1 RNA with C25U, A26C, A27C, U29A, U30G, G31C
DNA 1: CAATCTGAATTCCGGTCTCCC
DNA 2: TGGTGGCTACGACGGGATT
B11: AGCCCCC (DNA:RNA)
RNA: B1 RNA with C25A, A26G, A27C, U29C, U30C, G31C
DNA 1: CAATCTGAATTCCGGTCTCCC
DNA 2: TGGTGGCTACGACGGGATT
B12: CUGAUAG (DNA:RNA)
RNA: B1 RNA with A26U, A27G, C28A, U30A
DNA 1: CAATCTGAATTCCGGTCTCCC
DNA 2: TGGTGGCTACGACGGGATT
B13: GCCCCAC (DNA:RNA)
RNA: B1 RNA with C25G, A26C, A27C, U29C, U30A, G31C
DNA 1: CAATCTGAATTCCGGTCTCCC
DNA 2: TGGTGGCTACGACGGGATT
B14: AAACUGC (DNA:RNA)
RNA: B1 RNA with C25A, U30G, G31C
DNA 1: CAATCTGAATTCCGGTCTCCC
DNA 2: TGGTGGCTACGACGGGATT
B15: AUUACUA (DNA:RNA)
RNA: B1 RNA with C25A, A26U, A27U, C28A, U29C, G31A
DNA 1: CAATCTGAATTCCGGTCTCCC
DNA 2: TGGTGGCTACGACGGGATT
B16: CAUUUAU (DNA:RNA)
RNA: B1 RNA with A27U, C28U, U30A, G31U
DNA 1: CAATCTGAATTCCGGTCTCCC
DNA 2: TGGTGGCTACGACGGGATT
B17: ACAGCGU (DNA:RNA)
RNA: B1 RNA with C25A, A26C, C28G, U29C, U30G, G31U
DNA 1: CAATCTGAATTCCGGTCTCCC
DNA 2: TGGTGGCTACGACGGGATT
B18: UCACGUA (DNA:RNA)
RNA: B1 RNA with C25U, A26C, U29G, G31A
DNA 1: CAATCTGAATTCCGGTCTCCC
DNA 2: TGGTGGCTACGACGGGATT
B19: CACUGUU (DNA:RNA)
RNA: B1 RNA with A27C, C28U, U29G, G31U
DNA 1: CAATCTGAATTCCGGTCTCCC
DNA 2: TGGTGGCTACGACGGGATT
B20: UCAGUCG (DNA:RNA)
RNA: B1 RNA with C25U, A26C, C28G, U30C
DNA 1: CAATCTGAATTCCGGTCTCCC
DNA 2: TGGTGGCTACGACGGGATT
B21: UAGAGCU (DNA:RNA)
RNA: B1 RNA with C25U, A27G, C28A, U29G, U30C, G31U
DNA 1: CAATCTGAATTCCGGTCTCCC
DNA 2: TGGTGGCTACGACGGGATT
B22: CUGGGGU (DNA:RNA)
RNA: B1 RNA with A26U, A27G, C28G, U29G, U30G, G31U
DNA 1: CAATCTGAATTCCGGTCTCCC
DNA 2: TGGTGGCTACGACGGGATT
B23: AAAUGCG (DNA:RNA)
RNA: B1 RNA with C25A, C28U, U29G, U30C
DNA 1: CAATCTGAATTCCGGTCTCCC
DNA 2: TGGTGGCTACGACGGGATT
B24: UCAAAGC (DNA:RNA)
RNA: B1 RNA with C25U, A26C, C28A, U29A, U30G, G31C
DNA 1: CAATCTGAATTCCGGTCTCCC
DNA 2: TGGTGGCTACGACGGGATT
B25: CCCCGCC (DNA:RNA)
RNA: B1 RNA with A26C, A27C, U29G, U30C, G31C
DNA 1: CAATCTGAATTCCGGTCTCCC
DNA 2: TGGTGGCTACGACGGGATT
B26: CUAACGU (DNA:RNA)
RNA: B1 RNA with A26U, C28A, U29C, U30G, G31U
DNA 1: CAATCTGAATTCCGGTCTCCC
DNA 2: TGGTGGCTACGACGGGATT
B27: UAAACCA (DNA:RNA)
RNA: B1 RNA with C25U, C28A, U29C, U30C, G31A
DNA 1: CAATCTGAATTCCGGTCTCCC
DNA 2: TGGTGGCTACGACGGGATT
B28: AAACGAU (DNA:RNA)
RNA: B1 RNA with C25A, U29G, U30A, G31U
DNA 1: CAATCTGAATTCCGGTCTCCC
DNA 2: TGGTGGCTACGACGGGATT
B29: AUCUAUG (DNA:RNA)
RNA: B1 RNA with C25A, A26U, A27C, C28U, U29A
DNA 1: CAATCTGAATTCCGGTCTCCC
DNA 2: TGGTGGCTACGACGGGATT
B30: CAACUGU (DNA:RNA)
RNA: B1 RNA with U30G, G31U
DNA 1: CAATCTGAATTCCGGTCTCCC
DNA 2: TGGTGGCTACGACGGGATT
B31: CAGGACA (DNA:RNA)
RNA: B1 RNA with A27G, C28G, U29A, U30C, G31A
DNA 1: CAATCTGAATTCCGGTCTCCC
DNA 2: TGGTGGCTACGACGGGATT

The assay deals with T1, RBFOX1 RRM RbFoxmut (Fox-RRM*) (Homo sapiens, UniProt Q9NWB1 109-208, R118D;E147R;N151S;E152T).
T1 sequence: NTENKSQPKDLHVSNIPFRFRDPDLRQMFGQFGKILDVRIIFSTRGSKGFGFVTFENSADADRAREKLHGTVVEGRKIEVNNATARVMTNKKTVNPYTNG
Put plainly: EMSA; HiTS-Eq, 1 nM pool, 10 min; buffer printed only for the single-RNA assays: 10 mM Tris pH 7.5, 150 mM NaCl, 3.4 mM EDTA, 0.001% NP-40, 30 C. As to conditions: tags: His6 N-terminal (pET28a); label: 5' 32P. The gist of the method: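 Relative association constants, normalised to the cognate motif, were derived by comparing read counts of each RNA species with those of the control reaction. The RNA sequenced was the free fraction, separated by 8% native PAGE after a 10 min equilibration in 50 µL of 1 nM 5′-radiolabelled RNA (7 randomized nucleotides) with increasing concentrations of purified wild-type or mutant RbFox RRM.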
For orientation: A gel shift assay detects complexes by their altered migration in electrophoresis.
As to B1, the binding signal was 0.11 KA relative to UGCAUGU.

B2: the binding signal was 0.0789 KA relative to UGCAUGU.

On to B3, for which the binding signal is 0.107 KA relative to UGCAUGU.

Take B4: the binding signal was 0.203 KA relative to UGCAUGU.

Take B5: the binding signal was 0.174 KA relative to UGCAUGU.

Turning to B6, the binding signal was 0.104 KA relative to UGCAUGU.

B7: the binding signal is 0.28 KA relative to UGCAUGU.

For B8, the binding signal was 0.102 KA relative to UGCAUGU.

For B9, the binding signal is 0.191 KA relative to UGCAUGU.

As to B10, the binding signal is 0.1 KA relative to UGCAUGU.

Regarding B11, the binding signal is 0.0366 KA relative to UGCAUGU.

Take B12: the binding signal is 0.0824 KA relative to UGCAUGU.

Regarding B13, the binding signal is 0.094 KA relative to UGCAUGU.

Regarding B14, the binding signal was 0.0585 KA relative to UGCAUGU.

In the case of B15, the binding signal was 0.129 KA relative to UGCAUGU.

With B16, the binding signal is 0.133 KA relative to UGCAUGU.

In the case of B17, the binding signal was 0.138 KA relative to UGCAUGU.

In the case of B18, the binding signal is 0.165 KA relative to UGCAUGU.

As for B19, the binding signal is 0.106 KA relative to UGCAUGU.

On to B20, for which the binding signal is 0.09 KA relative to UGCAUGU.

For the molecule B21, the binding signal is 0.0836 KA relative to UGCAUGU.

Consider B22, for which the binding signal is 0.12 KA relative to UGCAUGU.

Consider B23, for which the binding signal is 0.104 KA relative to UGCAUGU.

B24: the binding signal was 0.0697 KA relative to UGCAUGU.

On to B25, for which the binding signal is 0.076 KA relative to UGCAUGU.

Take B26: the binding signal was 0.0712 KA relative to UGCAUGU.

Consider B27, for which the binding signal was 0.091 KA relative to UGCAUGU.

With B28, the binding signal is 0.0548 KA relative to UGCAUGU.

As for B29, the binding signal was 0.153 KA relative to UGCAUGU.

As to B30, the binding signal was 0.0791 KA relative to UGCAUGU.

In the case of B31, the binding signal is 0.0416 KA relative to UGCAUGU.
